Substitutions are numbered along the chain they refer to; changes in the protein carry UniProt numbers. Some of the results follow.

The chains are these.
B1: CCAAUUA (DNA:RNA)
RNA: GGGAGACCGGAAUUCAGAUUGUCCCCAAUUAUUAAAUCCCGUCGUAGCCACCA
DNA 1: CAATCTGAATTCCGGTCTCCC
DNA 2: TGGTGGCTACGACGGGATT
B2: GCAUGAG (DNA:RNA)
RNA: B1 RNA with C25G, A28U, U29G, U30A, A31G
DNA 1: CAATCTGAATTCCGGTCTCCC
DNA 2: TGGTGGCTACGACGGGATT
B3: GGAAAUA (DNA:RNA)
RNA: B1 RNA with C25G, C26G, U29A
DNA 1: CAATCTGAATTCCGGTCTCCC
DNA 2: TGGTGGCTACGACGGGATT
B4: AGCGGGC (DNA:RNA)
RNA: GGGAGACCGGAAUUCAGAUUGUCCAGCGGGCUUAAAUCCCGUCGUAGCCACCA
DNA 1: CAATCTGAATTCCGGTCTCCC
DNA 2: TGGTGGCTACGACGGGATT
B5: AUUCGUG (DNA:RNA)
RNA: B4 RNA with G26U, C27U, G28C, G30U, C31G
DNA 1: CAATCTGAATTCCGGTCTCCC
DNA 2: TGGTGGCTACGACGGGATT
B6: CAAGGCG (DNA:RNA)
RNA: B4 RNA with A25C, G26A, C27A, G30C, C31G
DNA 1: CAATCTGAATTCCGGTCTCCC
DNA 2: TGGTGGCTACGACGGGATT
B7: AUUACGA (DNA:RNA)
RNA: B4 RNA with G26U, C27U, G28A, G29C, C31A
DNA 1: CAATCTGAATTCCGGTCTCCC
DNA 2: TGGTGGCTACGACGGGATT
B8: UUACUUG (DNA:RNA)
RNA: B1 RNA with C25U, C26U, A28C, A31G
DNA 1: CAATCTGAATTCCGGTCTCCC
DNA 2: TGGTGGCTACGACGGGATT
B9: ACAGGGA (DNA:RNA)
RNA: B4 RNA with G26C, C27A, C31A
DNA 1: CAATCTGAATTCCGGTCTCCC
DNA 2: TGGTGGCTACGACGGGATT
B10: AGCCUCG (DNA:RNA)
RNA: B4 RNA with G28C, G29U, G30C, C31G
DNA 1: CAATCTGAATTCCGGTCTCCC
DNA 2: TGGTGGCTACGACGGGATT
B11: AACGAUG (DNA:RNA)
RNA: B4 RNA with G26A, G29A, G30U, C31G
DNA 1: CAATCTGAATTCCGGTCTCCC
DNA 2: TGGTGGCTACGACGGGATT
B12: UAGUUGA (DNA:RNA)
RNA: B1 RNA with C25U, C26A, A27G, A28U, U30G
DNA 1: CAATCTGAATTCCGGTCTCCC
DNA 2: TGGTGGCTACGACGGGATT
B13: CUGUCCG (DNA:RNA)
RNA: B1 RNA with C26U, A27G, A28U, U29C, U30C, A31G
DNA 1: CAATCTGAATTCCGGTCTCCC
DNA 2: TGGTGGCTACGACGGGATT
B14: CCGCUGU (DNA:RNA)
RNA: B1 RNA with A27G, A28C, U30G, A31U
DNA 1: CAATCTGAATTCCGGTCTCCC
DNA 2: TGGTGGCTACGACGGGATT
B15: AAGUCAG (DNA:RNA)
RNA: B4 RNA with G26A, C27G, G28U, G29C, G30A, C31G
DNA 1: CAATCTGAATTCCGGTCTCCC
DNA 2: TGGTGGCTACGACGGGATT
B16: CUUAGGU (DNA:RNA)
RNA: B4 RNA with A25C, G26U, C27U, G28A, C31U
DNA 1: CAATCTGAATTCCGGTCTCCC
DNA 2: TGGTGGCTACGACGGGATT
B17: UGGUCGA (DNA:RNA)
RNA: B4 RNA with A25U, C27G, G28U, G29C, C31A
DNA 1: CAATCTGAATTCCGGTCTCCC
DNA 2: TGGTGGCTACGACGGGATT
B18: UGAAAGA (DNA:RNA)
RNA: B1 RNA with C25U, C26G, U29A, U30G
DNA 1: CAATCTGAATTCCGGTCTCCC
DNA 2: TGGTGGCTACGACGGGATT
B19: AAGAAGG (DNA:RNA)
RNA: B4 RNA with G26A, C27G, G28A, G29A, C31G
DNA 1: CAATCTGAATTCCGGTCTCCC
DNA 2: TGGTGGCTACGACGGGATT
B20: GUCACAG (DNA:RNA)
RNA: B4 RNA with A25G, G26U, G28A, G29C, G30A, C31G
DNA 1: CAATCTGAATTCCGGTCTCCC
DNA 2: TGGTGGCTACGACGGGATT

For this assay, the target named is T1, RBFOX1 RRM RbFoxmut (Fox-RRM*) (Homo sapiens, UniProt Q9NWB1 109-208, R118D;E147R;N151S;E152T).
T1 sequence: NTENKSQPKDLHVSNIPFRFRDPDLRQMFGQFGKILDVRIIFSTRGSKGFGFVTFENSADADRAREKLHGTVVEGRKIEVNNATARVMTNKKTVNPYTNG
Description: EMSA; HiTS-Eq, 1 nM pool, 10 min; buffer printed only for the single-RNA assays: 10 mM Tris pH 7.5, 150 mM NaCl, 3.4 mM EDTA, 0.001% NP-40, 30 C. The conditions noted are these: tags: His6 N-terminal (pET28a); label: 5' 32P. A digest of the protocol:
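Purified RbFox RRM (wild type or mutant) was equilibrated for 10 min in 50 µL with 1 nM of a 5′-radiolabelled pool of RNA with 7 randomized nucleotides, its flanks annealed to DNA oligonucleotides, across increasing protein concentrations. Free RNA was separated by 8% native PAGE, excised, reverse-transcribed, PCR-barcoded and sequenced on an Illumina HiSeq 2500. Relative association constants came from read-count changes of each variant against the control reaction, normalised to the cognate motif.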
On the technique in general: A gel shift assay detects complexes by their altered migration in electrophoresis.
B1: the binding signal was 0.135 KA relative to UGCAUGU.

For the molecule B2, the binding signal was 0.771 KA relative to UGCAUGU.

Regarding B3, the binding signal is 0.0901 KA relative to UGCAUGU.

As to B4, the binding signal is 0.109 KA relative to UGCAUGU.

With B5, the binding signal is 0.141 KA relative to UGCAUGU.

For B6, the binding signal was 0.0947 KA relative to UGCAUGU.

Turning to B7, the binding signal is 0.0906 KA relative to UGCAUGU.

Take B8: the binding signal is 0.0888 KA relative to UGCAUGU.

For the molecule B9, the binding signal was 0.0824 KA relative to UGCAUGU.

As to B10, the binding signal is 0.199 KA relative to UGCAUGU.

For B11, the binding signal is 0.0668 KA relative to UGCAUGU.

Turning to B12, the binding signal is 0.0901 KA relative to UGCAUGU.

With B13, the binding signal was 0.129 KA relative to UGCAUGU.

Consider B14, for which the binding signal was 0.127 KA relative to UGCAUGU.

As to B15, the binding signal is 0.0887 KA relative to UGCAUGU.

Consider B16, for which the binding signal is 0.133 KA relative to UGCAUGU.

Take B17: the binding signal is 0.151 KA relative to UGCAUGU.

For B18, the binding signal was 0.0616 KA relative to UGCAUGU.

As to B19, the binding signal was 0.0703 KA relative to UGCAUGU.

Turning to B20, the binding signal is 0.0995 KA relative to UGCAUGU.

Values taken from paper PMC9911399, “Two distinct binding modes provide the RNA-binding protein RbFox with extraordinary sequence specificity”.
